Substitutions are numbered along the chain they refer to; changes in the protein carry UniProt numbers. The list shows a part of the results.

Sequences and labels used below:
T1: RBFOX1 RRM RbFoxmut (Fox-RRM*) (Homo sapiens, UniProt Q9NWB1 109-208, R118D;E147R;N151S;E152T)
T1 sequence: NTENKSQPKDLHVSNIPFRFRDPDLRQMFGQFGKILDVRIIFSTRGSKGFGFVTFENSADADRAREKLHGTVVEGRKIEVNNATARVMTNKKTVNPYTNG

B1: UCCCAUU (DNA:RNA)
RNA: GGGAGACCGGAAUUCAGAUUGUCCUCCCAUUUUAAAUCCCGUCGUAGCCACCA
DNA 1: CAATCTGAATTCCGGTCTCCC
DNA 2: TGGTGGCTACGACGGGATT
B2: GCACGAU (DNA:RNA)
RNA: B1 RNA with U25G, C27A, A29G, U30A
DNA 1: CAATCTGAATTCCGGTCTCCC
DNA 2: TGGTGGCTACGACGGGATT
B3: GGGAGUC (DNA:RNA)
RNA: B1 RNA with U25G, C26G, C27G, C28A, A29G, U31C
DNA 1: CAATCTGAATTCCGGTCTCCC
DNA 2: TGGTGGCTACGACGGGATT
B4: UCCUUAU (DNA:RNA)
RNA: B1 RNA with C28U, A29U, U30A
DNA 1: CAATCTGAATTCCGGTCTCCC
DNA 2: TGGTGGCTACGACGGGATT
B5: AACGGAU (DNA:RNA)
RNA: B1 RNA with U25A, C26A, C28G, A29G, U30A
DNA 1: CAATCTGAATTCCGGTCTCCC
DNA 2: TGGTGGCTACGACGGGATT
B6: GUAGUGA (DNA:RNA)
RNA: GGGAGACCGGAAUUCAGAUUGUCCGUAGUGAUUAAAUCCCGUCGUAGCCACCA
DNA 1: CAATCTGAATTCCGGTCTCCC
DNA 2: TGGTGGCTACGACGGGATT
B7: UCCUAAA (DNA:RNA)
RNA: B1 RNA with C28U, U30A, U31A
DNA 1: CAATCTGAATTCCGGTCTCCC
DNA 2: TGGTGGCTACGACGGGATT
B8: AUUUAUG (DNA:RNA)
RNA: B1 RNA with U25A, C26U, C27U, C28U, U31G
DNA 1: CAATCTGAATTCCGGTCTCCC
DNA 2: TGGTGGCTACGACGGGATT
B9: AAACUCU (DNA:RNA)
RNA: B6 RNA with G25A, U26A, G28C, G30C, A31U
DNA 1: CAATCTGAATTCCGGTCTCCC
DNA 2: TGGTGGCTACGACGGGATT
B10: UGCGAUA (DNA:RNA)
RNA: B1 RNA with C26G, C28G, U31A
DNA 1: CAATCTGAATTCCGGTCTCCC
DNA 2: TGGTGGCTACGACGGGATT
B11: CCCUUCC (DNA:RNA)
RNA: B1 RNA with U25C, C28U, A29U, U30C, U31C
DNA 1: CAATCTGAATTCCGGTCTCCC
DNA 2: TGGTGGCTACGACGGGATT
B12: CCGGGAA (DNA:RNA)
RNA: B6 RNA with G25C, U26C, A27G, U29G, G30A
DNA 1: CAATCTGAATTCCGGTCTCCC
DNA 2: TGGTGGCTACGACGGGATT
B13: GGCGGCA (DNA:RNA)
RNA: B6 RNA with U26G, A27C, U29G, G30C
DNA 1: CAATCTGAATTCCGGTCTCCC
DNA 2: TGGTGGCTACGACGGGATT
B14: UGCGAUU (DNA:RNA)
RNA: B1 RNA with C26G, C28G
DNA 1: CAATCTGAATTCCGGTCTCCC
DNA 2: TGGTGGCTACGACGGGATT
B15: UUAUACU (DNA:RNA)
RNA: B1 RNA with C26U, C27A, C28U, U30C
DNA 1: CAATCTGAATTCCGGTCTCCC
DNA 2: TGGTGGCTACGACGGGATT
B16: UUCUUCA (DNA:RNA)
RNA: B6 RNA with G25U, A27C, G28U, G30C
DNA 1: CAATCTGAATTCCGGTCTCCC
DNA 2: TGGTGGCTACGACGGGATT
B17: GGGGCUC (DNA:RNA)
RNA: B6 RNA with U26G, A27G, U29C, G30U, A31C
DNA 1: CAATCTGAATTCCGGTCTCCC
DNA 2: TGGTGGCTACGACGGGATT
B18: GGGGGUU (DNA:RNA)
RNA: B6 RNA with U26G, A27G, U29G, G30U, A31U
DNA 1: CAATCTGAATTCCGGTCTCCC
DNA 2: TGGTGGCTACGACGGGATT
B19: GUAAAGA (DNA:RNA)
RNA: B6 RNA with G28A, U29A
DNA 1: CAATCTGAATTCCGGTCTCCC
DNA 2: TGGTGGCTACGACGGGATT
B20: GAGAGCA (DNA:RNA)
RNA: B6 RNA with U26A, A27G, G28A, U29G, G30C
DNA 1: CAATCTGAATTCCGGTCTCCC
DNA 2: TGGTGGCTACGACGGGATT
B21: CGUUGAU (DNA:RNA)
RNA: B1 RNA with U25C, C26G, C27U, C28U, A29G, U30A
DNA 1: CAATCTGAATTCCGGTCTCCC
DNA 2: TGGTGGCTACGACGGGATT
B22: GGAGGGC (DNA:RNA)
RNA: B6 RNA with U26G, U29G, A31C
DNA 1: CAATCTGAATTCCGGTCTCCC
DNA 2: TGGTGGCTACGACGGGATT
B23: CGACGCC (DNA:RNA)
RNA: B6 RNA with G25C, U26G, G28C, U29G, G30C, A31C
DNA 1: CAATCTGAATTCCGGTCTCCC
DNA 2: TGGTGGCTACGACGGGATT
B24: UAGGUAC (DNA:RNA)
RNA: B6 RNA with G25U, U26A, A27G, G30A, A31C
DNA 1: CAATCTGAATTCCGGTCTCCC
DNA 2: TGGTGGCTACGACGGGATT
B25: GACAGAG (DNA:RNA)
RNA: B6 RNA with U26A, A27C, G28A, U29G, G30A, A31G
DNA 1: CAATCTGAATTCCGGTCTCCC
DNA 2: TGGTGGCTACGACGGGATT
B26: CGUCUUG (DNA:RNA)
RNA: B1 RNA with U25C, C26G, C27U, A29U, U31G
DNA 1: CAATCTGAATTCCGGTCTCCC
DNA 2: TGGTGGCTACGACGGGATT
B27: ACAUGUG (DNA:RNA)
RNA: B1 RNA with U25A, C27A, C28U, A29G, U31G
DNA 1: CAATCTGAATTCCGGTCTCCC
DNA 2: TGGTGGCTACGACGGGATT
B28: ACGUCCA (DNA:RNA)
RNA: B6 RNA with G25A, U26C, A27G, G28U, U29C, G30C
DNA 1: CAATCTGAATTCCGGTCTCCC
DNA 2: TGGTGGCTACGACGGGATT
B29: GAGAUUC (DNA:RNA)
RNA: B6 RNA with U26A, A27G, G28A, G30U, A31C
DNA 1: CAATCTGAATTCCGGTCTCCC
DNA 2: TGGTGGCTACGACGGGATT
B30: UACGAAG (DNA:RNA)
RNA: B1 RNA with C26A, C28G, U30A, U31G
DNA 1: CAATCTGAATTCCGGTCTCCC
DNA 2: TGGTGGCTACGACGGGATT
B31: GAGGUUC (DNA:RNA)
RNA: B6 RNA with U26A, A27G, G30U, A31C
DNA 1: CAATCTGAATTCCGGTCTCCC
DNA 2: TGGTGGCTACGACGGGATT

The target in the assay is T1, RBFOX1 RRM RbFoxmut (Fox-RRM*). The assay can be described thus: EMSA; HiTS-Eq, 1 nM pool, 10 min; buffer printed only for the single-RNA assays: 10 mM Tris pH 7.5, 150 mM NaCl, 3.4 mM EDTA, 0.001% NP-40, 30 C. The note with it: tags: His6 N-terminal (pET28a); label: 5' 32P. A digest of the protocol: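 Purified wild-type or mutant RbFox RRM at increasing concentrations was equilibrated with 1 nM of 5′-radiolabelled RNA carrying 7 randomized nucleotides for 10 min in 50 µL. Unbound RNA was separated by 8% native PAGE and sequenced. Relative association constants came from read-count changes of each RNA species compared with the control reaction, normalised to the cognate motif.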
(A gel shift assay detects complexes by their altered migration in electrophoresis.)
On to B1, for which the binding signal is 0.0548 KA relative to UGCAUGU.

Turning to B2, the binding signal was 0.164 KA relative to UGCAUGU.

Consider B3, for which the binding signal was 0.188 KA relative to UGCAUGU. The result for B4 reads 0.128 KA relative to UGCAUGU; that for B5, 0.0829 KA relative to UGCAUGU. As to B6, the binding signal is 0.0964 KA relative to UGCAUGU. As for B7, the binding signal is 0.0858 KA relative to UGCAUGU.

For B8, the binding signal was 0.138 KA relative to UGCAUGU.

For the molecule B9, the binding signal was 0.0488 KA relative to UGCAUGU. The result for B10 reads 0.129 KA relative to UGCAUGU. The result for B11 reads 0.049 KA relative to UGCAUGU; that for B12, 0.142 KA relative to UGCAUGU. The result for B13 reads 0.124 KA relative to UGCAUGU; that for B14, 0.0876 KA relative to UGCAUGU; that for B15, 0.11 KA relative to UGCAUGU.

As for B16, the binding signal was 0.111 KA relative to UGCAUGU. For B17, the binding signal was 0.122 KA relative to UGCAUGU. With B18, the binding signal was 0.102 KA relative to UGCAUGU. B19: the binding signal was 0.064 KA relative to UGCAUGU. To B20 belongs 0.151 KA relative to UGCAUGU; to B21, 0.108 KA relative to UGCAUGU. Consider B22, for which the binding signal is 0.0724 KA relative to UGCAUGU. The result for B23 reads 0.107 KA relative to UGCAUGU; that for B24, 0.0736 KA relative to UGCAUGU; that for B25, 0.07 KA relative to UGCAUGU. As to B26, the binding signal was 0.615 KA relative to UGCAUGU. To B27 belongs 0.155 KA relative to UGCAUGU. The result for B28 reads 0.1 KA relative to UGCAUGU; that for B29, 0.101 KA relative to UGCAUGU; that for B30, 0.0529 KA relative to UGCAUGU. To B31 belongs 0.143 KA relative to UGCAUGU.

Source of the values: PMC9911399, “Two distinct binding modes provide the RNA-binding protein RbFox with extraordinary sequence specificity”.
